# Source: PMC4336329 (PLoS ONE, 2015)
# Out of some 310,000 compounds screened, about 2,200 (0.71%) showed an effect of 50% or more. The effect is printed as a negative number. The list shows a part of the results.
# Biological target: human ether-à-go-go-related gene (hERG) potassium channel (human, UniProt Q12809)
# Test: primary screen, population patch clamp on CHO cells stably expressing hERG
# Sequence of human ether-à-go-go-related gene (hERG) potassium channel (Q12809 whole entry, looked up): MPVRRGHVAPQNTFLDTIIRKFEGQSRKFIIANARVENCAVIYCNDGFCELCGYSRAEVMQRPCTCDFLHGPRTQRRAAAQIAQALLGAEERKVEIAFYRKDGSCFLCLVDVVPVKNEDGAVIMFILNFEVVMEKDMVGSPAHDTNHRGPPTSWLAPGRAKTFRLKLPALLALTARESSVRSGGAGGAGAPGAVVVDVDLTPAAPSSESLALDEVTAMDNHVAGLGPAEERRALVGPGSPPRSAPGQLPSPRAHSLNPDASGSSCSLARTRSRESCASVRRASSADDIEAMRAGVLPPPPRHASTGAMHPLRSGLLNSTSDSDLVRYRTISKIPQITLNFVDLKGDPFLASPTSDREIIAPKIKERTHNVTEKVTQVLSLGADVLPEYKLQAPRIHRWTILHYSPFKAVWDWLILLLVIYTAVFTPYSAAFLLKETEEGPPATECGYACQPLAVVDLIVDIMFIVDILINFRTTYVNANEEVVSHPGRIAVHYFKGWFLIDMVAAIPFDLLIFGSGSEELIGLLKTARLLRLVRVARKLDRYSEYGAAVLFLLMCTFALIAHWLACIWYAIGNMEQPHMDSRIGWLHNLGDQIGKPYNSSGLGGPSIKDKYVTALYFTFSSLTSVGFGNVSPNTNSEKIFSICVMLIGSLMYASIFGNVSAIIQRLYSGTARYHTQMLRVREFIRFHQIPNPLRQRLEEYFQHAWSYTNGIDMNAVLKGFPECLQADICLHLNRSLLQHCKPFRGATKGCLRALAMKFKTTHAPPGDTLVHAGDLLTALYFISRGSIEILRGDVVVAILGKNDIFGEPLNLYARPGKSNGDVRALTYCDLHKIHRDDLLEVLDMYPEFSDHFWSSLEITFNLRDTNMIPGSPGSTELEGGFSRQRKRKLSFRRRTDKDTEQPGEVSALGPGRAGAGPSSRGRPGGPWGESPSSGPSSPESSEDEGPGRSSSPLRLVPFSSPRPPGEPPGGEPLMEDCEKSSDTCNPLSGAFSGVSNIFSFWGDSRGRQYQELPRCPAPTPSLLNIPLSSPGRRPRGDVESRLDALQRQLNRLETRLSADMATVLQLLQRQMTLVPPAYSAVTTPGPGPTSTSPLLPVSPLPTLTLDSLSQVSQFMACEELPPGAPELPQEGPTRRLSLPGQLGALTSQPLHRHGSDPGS
row,Compound,"hERG current change (%, negative = inhibition) at 1uM [%]"
1,CCCCCOc1ccc(/C=C/c2c([N+](=O)[O-])c(=O)n(C)c(=O)n2C)cc1,12.2
2,COC(=O)c1ccc(Oc2c(C(F)(F)F)oc3c(CN4CCN(C)CC4)c(O)ccc3c2=O)cc1,9.42
3,COc1ccc(Br)cc1CNC(=O)C1CCCN(S(=O)(=O)N2CC(C)CC(C)C2)C1 (centres unmarked),7.69
4,C/C(Cc1ccccc1)=N\NC(=O)CNC(=O)c1ccc(F)cc1,16.9
5,CCOC(=O)/C=C1\SCC(=O)N1CC(=O)Nc1ccc(OC)c(OC)c1,12.2
6,Cn1c(CO)cnc1S(=O)(=O)Cc1ccc([N+](=O)[O-])cc1,13.6
7,CCSCCOC(=O)C1=C(C)N(C)C(=O)NC1c1ccc2c(c1)OCO2 (centres unmarked),15.6
8,CC(=O)c1cccc(N(CC(=O)NC2CCCCC2)C(=O)CCC(=O)Nc2nc(C)cs2)c1,8.78
9,CCOC(=O)c1oc2ccccc2c1NC(=O)c1ccccc1OC,10.5
10,CN(Cc1nc2ccccc2n1C)C(=O)c1cccs1,0.752
11,O=C(COc1ncnc2sccc12)Nc1cccc(S(=O)(=O)N2CCOCC2)c1,9.04
12,COc1ccc(OC)c(NC(=O)CC(NC(C)=O)c2ccccc2)c1 (centres unmarked),10.1
13,COc1ccccc1OCCCCN1CCN(C(c2ccccc2)c2ccccc2)CC1.O=C(O)C(=O)O,-24.9
14,COc1ccccc1C(=O)Nc1ccnn1C1CCN(C(=O)C(C)(C)C)CC1,-6.95
15,CC(=O)OC[C@H]1O[C@@H](Sc2cccc3cccnc23)[C@H](OC(C)=O)[C@@H](OC(C)=O)[C@H]1OC(C)=O,5.33
16,O=C(O)CCSc1nc2ccccc2s1,7.31
17,CN(Cc1ccccc1)C(=O)CC(=O)N(C)Cc1ccccc1,16.9
18,Cc1ccc(S(=O)(=O)N2CCN(C(=O)CSc3nc4ccccc4c(=O)[nH]3)CC2)cc1,3.53
19,Cc1ccc2cc(NC(=O)c3ccccc3C)ccc2n1,14.2
20,CNC(=O)/C(C#N)=C\c1ccc(CNS(=O)(=O)c2ccccc2)o1,4.81
21,Cc1ccc(-c2csc3ncnc(NCCN4CCOCC4)c23)cc1,7.19
22,CC(C)NCC(O)COc1ccc(COCCOC(C)C)cc1.O=C(O)/C=C/C(=O)O (centres unmarked),3.18

row,Compound,"hERG current change (%, negative = inhibition) at 1uM [%]"
1,CC(C)c1ccc(NC2CCCN(C(=O)CCn3cnnn3)C2)cc1 (centres unmarked),11.4
2,CCOC(=O)N1CCC(NC(=O)CS(=O)Cc2nc(-c3ccc(Cl)cc3)oc2C)CC1 (centres unmarked),3.06
3,Cc1ccc(-c2c[n+](Cc3ccc(Cl)cc3)c3n2CCC3)cc1.[Cl-],1.55
4,CN(C(=O)CSc1nnc(-c2ccco2)o1)C1CCCCC1,2.27
5,COc1ccc(N2C(=O)C3[C@@H](C2=O)C2(Cl)C(Cl)=C(Cl)C3(Cl)C2(OC)OC)cc1 (some centres unmarked),11.3
6,COC(=O)c1cccc(NC(=O)CSc2nnc(COc3ccccc3)n2C)c1,-2.57
7,O=C(CCCCCNC(=O)N1CCn2c1nc1ccccc12)NCc1ccccc1Cl,2.45
8,COc1ccc(OCC(=O)OCC(=O)NCC2CCCCC2)cc1,16.2
9,COC(=O)[C@]1(C)N[C@H](c2ccc(SC3CCCCC3)cc2)[C@@H]2C(=O)N(C)C(=O)[C@@H]21.O=C(O)C(F)(F)F,-0.0645
10,CCCC[C@@H]1CNCCN1CCc1cccc2ccccc12,3.54
11,CCn1c(SCC(=O)OC(C)C)nnc1-c1ccccc1OC,1.53
12,CCCNC(=O)c1ccc(S(N)(=O)=O)cc1,10.8
13,COc1ccc(CCNC(=O)NC23CC4CC(CC(C4)C2)C3)cc1,13.9
14,Cc1cc(C(=O)NC2CCCN(Cc3ccccc3F)C2)no1 (centres unmarked),16.9
15,O=C(CSc1ccc(-c2ccco2)nn1)c1ccc(F)cc1,-2.59
16,COC(=O)NC(NC(=S)Nc1cccc(C)c1)C(Cl)(Cl)Cl (centres unmarked),7.24
17,O=C(CSc1nnc(-c2ccncc2)o1)N1CCCC1,6.86
18,CCOc1cccc(N(C(=O)c2ccco2)C(C(=O)NC2CCCC2)c2cccnc2)c1 (centres unmarked),11.3
19,COC(=O)c1sccc1NC(=O)Nc1cccc(C)c1C,12.9
20,CCn1c(NCc2ccc3c(c2)OCO3)nc2ccccc21,-0.884
21,Cc1cc(C)c(NC(=O)c2cn3c4c(c(N5CCN(C)CC5)c(F)cc4c2=O)OCC3C)c(C)c1 (centres unmarked),-4.19
22,COc1ccc(-c2cn3cccnc3n2)cc1NC(=O)C(C)C,14.6

row,Compound,"hERG current change (%, negative = inhibition) at 1uM [%]"
1,O=C(CSCc1c(F)cccc1Cl)NCc1ccncc1,10.1
2,Cc1cc(S(=O)(=O)NCC2CC2)c(Cl)cc1Cl,8.11
3,O=C(C1CCN(S(=O)(=O)c2cccc3cccnc23)CC1)N1CCCC1,9.79
4,COc1ccccc1NS(=O)(=O)c1ccc2[nH]c(=O)[nH]c2c1,5.1
5,O=C(c1ccco1)N1CCN(Cc2cn[nH]c2-c2ccc(F)cc2F)CC1,11.5
6,CC(C)OCCCNC(=O)C1CCC(CNS(=O)(=O)c2ccc(Cl)cc2)CC1 (centres unmarked),11.2
7,COc1ccc(NC(=O)CN(C)C(=O)Cn2c(=O)oc3ccccc32)cc1,13.9
8,CCN(CC)S(=O)(=O)c1ccc(N/N=C/c2ccc(OC)c(OC)c2OC)nc1,10.9
9,C[C@@H](O)C1NC(=O)[C@H](CCCCN)NC(=O)c2cc([N+](=O)[O-])cc(I)c2OCC[C@@H](C(N)=O)NC1=O (some centres unmarked),18.3
10,COc1ccc(S(=O)(=O)N2CN(CCc3ccc(OC)c(OC)c3)c3nc4ccccc4nc32)cc1,5.2
11,COc1cc(C=O)ccc1OCCSc1ccc(Cl)cc1,0.559
12,CCN(CC)C1CCN(C(=O)c2cc(COc3ccc(-n4cncn4)cc3)on2)C1 (centres unmarked),13.1
13,COC(=O)c1ccc(CSc2nnc(Nc3ccccc3OC)s2)o1,-30
14,COC(=O)c1ccccc1SC(CC(=O)c1ccccc1)c1ccc(F)cc1 (centres unmarked),10
15,O=C(c1ccc2nc[nH]c2c1)N1CCN(c2ncc(C(F)(F)F)cc2Cl)CC1,6.29
16,COc1cc(/C=C(\C#N)C(=O)NCC2CCCO2)ccc1OCC(=O)O (centres unmarked),11.5
17,CCC(C)n1c(O)c(/C=N/Nc2nc3c(c(=O)n(C)c(=O)n3C)n2C)c(=O)[nH]c1=S (centres unmarked),11.6
18,COCCN(C(=O)c1ccc(-c2ccc(Cl)cc2)o1)c1c(N)n(Cc2ccccc2)c(=O)[nH]c1=O,4.91
19,COc1ccc(N2C(=O)CC(N3CCN(c4ccccc4F)CC3)C2=O)cc1 (centres unmarked),10.7
20,COc1ccc(CNC(=O)c2noc(C)c2[N+](=O)[O-])cc1,6.55
21,Clc1cccc(-c2nc(-c3ccccn3)no2)c1,10.7
22,O=C(COc1ccccc1)N1N=C(c2cccnc2)CC1(O)C(F)(F)F (centres unmarked),12.5

row,Compound,"hERG current change (%, negative = inhibition) at 1uM [%]"
1,COc1cc(OC)cc(-c2cc3nc(C)c(CCC(=O)O)c(C)n3n2)c1,25.6
2,CN1C(=O)c2ccc(NC(=O)CSc3ccccc3)cc2C1=O,13.1
3,CCCc1nc(NCC2CCCO2)c2nnn(Cc3ccccc3)c2n1 (centres unmarked),14.3
4,COCCN(C)C(=O)CCc1nnc(Cc2ccc(-c3ccccc3)cc2)o1,-5.78
5,Cc1cccc(NS(=O)(=O)c2nnc(NC(=O)c3ccc(Cl)cc3)s2)c1,9.52
6,CCOC(=O)c1csc(NC(C)=O)n1,7.33
7,COc1ccc(C(CC(=O)Nc2ccccn2)N2Cc3ccccc3C2=O)cc1 (centres unmarked),9.84
8,Cc1cccc(NC(=S)N2CCN(Cc3ccccc3)CC2)c1C,-4.61
9,O=C(NCC1CCCN1S(=O)(=O)c1cccs1)c1ccc(F)cc1 (centres unmarked),1.26
10,CCOC(=O)C1CCN(C(=O)COc2ccc(S(=O)(=O)N3CCOCC3)cc2C)CC1,7.44
11,COc1ccc(C2C3=C(N=C4SCC(=O)N42)c2ccccc2CC3)cc1 (centres unmarked),-1.65
12,CSc1cccc(NC(=O)CCNS(=O)(=O)c2ccc3[nH]c(=O)oc3c2)c1,14.1
13,NCc1c(O)ccc2ccccc12,13.7
14,CCC(C)n1c(O)c(C=NCCc2ccccc2)c(=O)[nH]c1=S (centres unmarked),10.6
15,CCOc1cc(C(=O)N(C)Cc2cc3cc(OC)ccc3[nH]c2=O)cc(OCC)c1OCC,0.31
16,CCN(CC(=O)N1CCOCC1)S(=O)(=O)c1ccc(Cl)cc1,5.49
17,O=[N+]([O-])c1ccc(NCCc2ccccc2)c(Br)c1,14.2
18,CCOc1ccc(N=Cc2c(O)n(-c3cccc(C)n3)c(=O)c3ccccc23)cc1,-6.39
19,COc1cccc(NC(=S)NC(=O)/C=C/c2ccc(F)cc2)c1,19
20,CCO[C@@H]1c2c(ccc3ccc(=O)oc23)OC(C)(C)[C@@H]1O,14
